The values that follow are results of earlier work, collected in US10646600B2, “HER2 polypeptides useful for imaging and monitoring tumors and cancers” (GE HEALTHCARE LIMITED, priority 2013, dated 2020).

For this data set, the target named is T1, human HER2-ECD-Fc (Homo sapiens, UniProt P04626).
T1 construct: Fc (C)
The settings on record: reference (27); read-out: binding to human HER2-ECD-Fc; cited from earlier work.

Consider “ZHER2:2891: parent Affibody, optimized scaffold with 11 amino acid substitutions in the nonbinding surface (AEAKYAKEMRNAYWEIALLPNLTNQQKRAFIRKLYDDPSQSSELLSEAKKLNDSQAPKVD)”, for which the Kd is 0.076 nM.
